# Laboratory results reported in the supplement of paper PMC12217912.
# This is one part of the list. Sequences were assembled here from the parent chain. Values near 0.05 are background.
# B1: TEV protease; numbered along this chain (parent)
# chain: MGESLFKGPRDYNPISSSICHLTNESDGHTTSLYGIGFGPFIITNKHLFRRNNGTLVVQSLHGVFKVKDTTTLQQHLVDGRDMIIIRMPKDFPPFPQKLKFREPQREERICLVTTNFQTKSMSSMVSDTSCTFPSGDGIFWKHWIQTKDGQCGSPLVSTRDGFIVGIHSASNFTNTNNYFTSVPKNFMELLTNQEAQQWVSGWRLNADSVLWGGHKVFMVKPEEPFQPVKEATQL
# Variants of: B1
# Assay: raw area under fraction-flipped curve 0-4 h after induction (AUC4h, not background-subtracted), DNA-recorder readout of cleavage of the substrate (dimensionless); higher = more cleavage of the substrate by the protease variant
# Settings: temperature: 34 °C; time window: 0-4 h after rhamnose induction
# 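Further: Bxb1 expression induced with 0.2% (w/v) L-rhamnose at OD600 near 0.5, cultures sampled hourly, flipped fraction per protease–substrate barcode pair counted by paired-end Illumina sequencing.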
Variant,area with substrate EALYFQS,area with substrate EGLYFQS,area with substrate EKLYFQS,area with substrate ELLYFQS,area with substrate EMLYFQS,area with substrate EPLYFQS,area with substrate ERLYFQS,area with substrate ESLYFQS,area with substrate ETLYFQS,area with substrate EVLYFQS,area with substrate EYLYFQS,area with substrate ECLYFQS,area with substrate EDLYFQS,area with substrate EHLYFQS,area with substrate EWLYFQS,area with substrate EELYFQS,area with substrate EFLYFQS,area with substrate EILYFQS,area with substrate EQLYFQS
MGESLFKGPRDYNPISSSICHLTNESDGHTTSLYGIGFGPFIITNKHLFRRNNGTLVVQSLHGVFKVKDTTTLQQHLVDGRDMIIIRMPKDFPPFPQKLKFREPQREERICLVTTNFQTKSMSSMVSDTSCTFPSGDGIFWKHWIQTKDGQCGSPLVSTRDGFIVGIHSASNFTNTNNYFTSVPKNFMELLTNQEAQQWVSGWRLNADSVLWGGHKVFMVSPEEPFQPVKEATQL [K221S],0.0988,0.0648,0.0884,0.0805,0.102,0.0646,0.0825,0.0962,0.142,0.0697,0.0584,,,,,,,,
MGESLFKGPRDYNPISSSICHLTNESDGHTTSLYGIGFGPFIITNKHLFRRNNGTLVVQSLHGVFKVKDTTTLQQHLVDGRDMIIIRMPKDFPPFPQKLKFREPQREERICLVTTNFQTKSMSSMVSDTSCTFPSGDGIFWKHWIQTKDGQCGSPLVSTRDGFIVGIHSASNFTNTNNYFTSVPKNFMELLTNQEAQQWVSGWRLNADSVLWGGHKVFMVKPEEPEQPVKEATQL [F226E],0.185,0.102,,0.114,0.101,,0.106,0.0464,0.126,0.158,,0.119,0.142,0.111,0.0858,,,,
MGESLFKGPRDYNPISSSICHLTNESDGHTTSLYGIGFGPFIITNKHLFRRNNGTLVVQSLHGVFKVKDTTTLQQHLVDGRDMIIIRMPKDFPPFPQKLKFREPQREERICLVTTNFQTKSMSSMVSDTSCTFPSGDGIFWKHWIQTKDGQCGSPLVSTRDGFIVGIHSASNFTNTNNYFTSVPKNFMELLTNQEAQQWVSGWRLNADSVLWGGHKVFMVKPEEPQQPVKEATQL [F226Q],0.11,0.115,0.109,0.0899,0.132,,0.131,0.0986,,,0.105,,,,,0.143,0.181,,
MGESLFKGPRDYNPISSSICHLTNESDGHTTSLYGIGFGPFIITNKHLFRRNNGTLVVQSLHGVFKVKDTTTLQQHLVDGRDMIIIRMPKDFPPFPQKLKFREPQREERICLVTTNFQTKSMSSMVSDTSCTFPSGDGIFWKHWIQTKDGQCGSPLVSTRDGFIVGIHSASNFTNTNNYFTSVPKNFMELLTNQEAQQWVSGWRLNADSVLWGGHKVFMVKPEEPGQPVKEATQL [F226G],0.131,0.0839,0.101,0.109,0.112,,0.129,0.0727,,0.108,,0.124,,0.0856,,,0.138,0.0766,
MGESLFKGPRDYNPISSSICHLTNESDGHTTSLYGIGFGPFIITNKHLFRRNNGTLVVQSLHGVFKVKDTTTLQQHLVDGRDMIIIRMPKDFPPFPQKLKFREPQREERICLVTTNFQTKSMSSMVSDTSCTFPSGDGIFWKHWIQTKDGQCGSPLVSTRDGFIVGIHSASNFTNTNNYFTSVPKNFMELLTNQEAQQWVSGWRLNADSVLWGGHKVFMVKPEEPFQPVKVATQL [E231V],0.129,,,0.115,0.117,0.124,0.0959,0.117,,0.0876,,0.11,,,,0.126,,0.0715,0.119
MGESLFKGPRDYNPISSSICHLTNESDGHTTSLYGIGFGPFIITNKHLFRRNNGTLVVQSLHGVFKVKDTTTLQQHLVDGRDMIIIRMPKDFPPFPQKLKFREPQREERICLVTTNFQTKSMSSMVSDTSCTFPSGDGIFWKHWIQTKDGQCGSPLVSTRDGFIVGIHSASNFTNTNNYFTSVPKNFMELLTNQEAQQWVSGWRLNADSVLWGGHKVFMVKPEEPFQPVKNATQL [E231N],0.0991,,,0.0828,0.125,,,0.0921,0.118,0.109,0.117,,0.137,,0.101,,,0.0874,
MGESLFKGPRDYNPISSSICHLTNESDGHTTSLYGIGFGPFIITNKHLFRRNNGTLVVQSLHGVFKVKDTTTLQQHLVDGRDMIIIRMPKDFPPFPQKLKFREPQREERICLVTTNFQTKSMSSMVSDTSCTFPSGDGIFWKHWIQTKDGQCGSPLVSTRDGFIVGIHSASNFTNTNNYFTSVPKNFMELLTNQEAQQWVSGWRLNADSVLWGGHKVFMVKPEEPFQPEKEATQL [V229E],0.126,,,0.0822,,0.131,,0.107,0.118,0.0888,0.13,,0.146,,0.107,,,,
MGESLFKGPRDYNPISSSICHLTNESDGHTTSLYGIGFGPFIITNKHLFRRNNGTLVVQSLHGVFKVKDTTTLQQHLVDGRDMIIIRMPKDFPPFPQKLKFREPQREERICLVTTNFQTKSMSSMVSDTSCTFPSGDGIFWKHWIQTKDGQCGSPLVSTRDGFIVGIHSASNFTNTNNYFTSVPKNFMELLTNQEAQQWVSGWRLNADSVLWGGHKVFMVKPEEPFQPKKEATQL [V229K],0.119,0.121,,0.117,0.129,0.128,0.119,0.127,,,0.108,,0.129,0.127,0.0978,0.134,0.0979,0.0871,0.101
MGESLFKGPRDYNPISSSICHLTNESDGHTTSLYGIGFGPFIITNKHLFRRNNGTLVVQSLHGVFKVKDTTTLQQHLVDGRDMIIIRMPKDFPPFPQKLKFREPQREERICLVTTNFQTKSMSSMVSDTSCTFPSGDGIFWKHWIQTKDGQCGSPLVSTRDGFIVGIHSASNFTNTNNYFTSVPKNFMELLTNQEAQQWVSGWRLNADSVLWGGHKVFMVKPEEPFQPQKEATQL [V229Q],0.113,0.0985,0.102,0.117,0.0996,,,0.0944,0.119,0.0921,,0.107,,0.0883,0.088,,,0.102,
MGESLFKGPRDYNPISSSICHLTNESDGHTTSLYGIGFGPFIITNKHLFRRNNGTLVVQSLHGVFKVKDTTTLQQHLVDGRDMIIIRMPKDFPPFPQKLKFREPQREERICLVTTNFQTKSMSSMVSDTSCTFPSGDGIFWKHWIQTKDGQCGSPLVSTRDGFIVGIHSASNFTNTNNYFTSVPKNFMELLTNQEAQQWVSGWRLNADSVLWGGHKVFMVKPYEPFQPVKEATQL [E223Y],0.115,0.0854,,,0.113,0.111,0.0847,0.107,0.0607,0.0968,,0.102,,,,,,,0.0918
MGESLFKGPRDYNPISSSICHLTNESDGHTTSLYGIGFGPFIITNKHLFRRNNGTLVVQSLHGVFKVKDTTTLQQHLVDGRDMIIIRMPKDFPPFPQKLKFREPQREERICLVTTNFQTKSMSSMVSDTSCTFPSGDGIFWKHWIQTKDGQCGSPLVSTRDGFIVGIHSASNFTNTNNYFTSVPKNFMELLTNQEAQQWVSGWRLNADSVLWGGHKVFMVKPNEPFQPVKEATQL [E223N],0.0956,,,,0.0975,0.121,0.105,0.0933,,,,,,,,0.144,,0.0804,0.12
MGESLFKGPRDYNPISSSICHLTNESDGHTTSLYGIGFGPFIITNKHLFRRNNGTLVVQSLHGVFKVKDTTTLQQHLVDGRDMIIIRMPKDFPPFPQKLKFREPQREERICLVTTNFQTKSMSSMVSDTSCTFPSGDGIFWKHWIQTKDGQCGSPLVSTRDGFIVGIHSASNFTNTNNYFTSVPKNFMELLTNQEAQQWVSGWRLNADSVLWGGHKVFMVKPEEPFWPVKEATQL [Q227W],0.1,0.0658,0.114,,,,0.126,0.0994,,0.0672,0.0975,0.102,0.12,,0.0784,,,0.0817,
MGESLFKGPRDYNPISSSICHLTNESDGHTTSLYGIGFGPFIITNKHLFRRNNGTLVVQSLHGVFKVKDTTTLQQHLVDGRDMIIIRMPKDFPPFPQKLKFREPQREERICLVTTNFQTKSMSSMVSDTSCTFPSGDGIFWKHWIQTKDGQCGSPLVSTRDGFIVGIHSASNFTNTNNYFTSVPKNFMELLTNQEAQQWVSGWRLNADSVLWGGHKVFMVKPEEPFQPVKEAEQL [T233E],0.112,0.101,0.134,,,,0.0953,0.0979,,,,,,0.105,,,,0.1,
MGESLFKGPRDYNPISSSICHLTNESDGHTTSLYGIGFGPFIITNKHLFRRNNGTLVVQSLHGVFKVKDTTTLQQHLVDGRDMIIIRMPKDFPPFPQKLKFREPQREERICLVTTNFQTKSMSSMVSDTSCTFPSGDGIFWKHWIQTKDGQCGSPLVSTRDGFIVGIHSASNFTNTNNYFTSVPKNFMELLTNQEAQQWVSGWRLNADSVLWGGHKVFMVKPEEPFQPVKEAMQL [T233M],0.104,0.107,,0.102,0.0924,0.056,0.0834,0.0945,0.144,0.0951,0.0849,,0.138,0.0976,,0.102,,0.0871,
MGESLFKGPRDYNPISSSICHLTNESDGHTTSLYGIGFGPFIITNKHLFRRNNGTLVVQSLHGVFKVKDTTTLQQHLVDGRDMIIIRMPKDFPPFPQKLKFREPQREERICLVTTNFQTKSMSSMVSDTSCTFPSGDGIFWKHWIQTKDGQCGSPLVSTRDGFIVGIHSASNFTNTNNYFTSVPKNFMELLTNQEAQQWVSGWRLNADSVLWGGHKVFMVKIEEPFQPVKEATQL [P222I],0.106,0.0869,0.104,0.0495,0.0936,0.11,,,,,,0.105,,,0.0535,0.102,,0.0638,
MGESLFKGPRDYNPISSSICHLTNESDGHTTSLYGIGFGPFIITNKHLFRRNNGTLVVQSLHGVFKVKDTTTLQQHLVDGRDMIIIRMPKDFPPFPQKLKFREPQREERICLVTTNFQTKSMSSMVSDTSCTFPSGDGIFWKHWIQTKDGQCGSPLVSTRDGFIVGIHSASNFTNTNNYFTSVPKNFMELLTNQEAQQWVSGWRLNADSVLWGGHKVFMVKAEEPFQPVKEATQL [P222A],0.0879,0.0468,,,,0.131,,0.103,,0.0961,0.102,,0.142,,,,,0.0636,
MGESLFKGPRDYNPISSSICHLTNESDGHTTSLYGIGFGPFIITNKHLFRRNNGTLVVQSLHGVFKVKDTTTLQQHLVDGRDMIIIRMPKDFPPFPQKLKFREPQREERICLVTTNFQTKSMSSMVSDTSCTFPSGDGIFWKHWIQTKDGQCGSPLVSTRDGFIVGIHSASNFTNTNNYFTSVPKNFMELLTNQEAQQWVSGWRLNADSVLWGGHKVFMVKPEEPFQPVSEATQL [K230S],0.113,0.0932,0.111,0.112,0.134,,,0.116,0.125,0.088,0.129,,0.137,,0.0942,,0.141,,0.123
MGESLFKGPRDYNPISSSICHLTNESDGHTTSLYGIGFGPFIITNKHLFRRNNGTLVVQSLHGVFKVKDTTTLQQHLVDGRDMIIIRMPKDFPPFPQKLKFREPQREERICLVTTNFQTKSMSSMVSDTSCTFPSGDGIFWKHWIQTKDGQCGSPLVSTRDGFIVGIHSASNFTNTNNYFTSVPKNFMELLTNQEAQQWVSGWRLNADSVLWGGHKVFMVKPEECFQPVKEATQL [P225C],0.109,0.0773,0.0962,,0.103,,0.0858,0.0854,0.124,0.0984,,,,0.126,0.0962,0.0934,0.0803,0.0919,0.108
MGESLFKGPRDYNPISSSICHLTNESDGHTTSLYGIGFGPFIITNKHLFRRNNGTLVVQSLHGVFKVKDTTTLQQHLVDGRDMIIIRMPKDFPPFPQKLKFREPQREERICLVTTNFQTKSMSSMVSDTSCTFPSGDGIFWKHWIQTKDGQCGSPLVSTRDGFIVGIHSASNFTNTNNYFTSVPKNFMELLTNQEAQQWVSGWRLNADSVLWGGHKVFMVKPEEKFQPVKEATQL [P225K],0.115,0.0989,0.121,,,,0.116,0.108,0.105,,0.0894,,,,,0.123,0.101,0.0904,0.0847
